{
  "source": "PubChem BioAssay AID463173",
  "about": "(ICCB-Longwood Screening Facility, Harvard Medical School, 2010)",
  "note": "Screen size: about 52,000 compounds; about 4,300 (8.3%) were called active. No stated cut-off is given here; in the data, active means survival mostly below about 52% (no sharp cut-off); inactive means mostly above about 56%. This is one part of the list.",
  "data": [
    {"system": "DeltatarO mutant", "assay": "S. aureus survival, RN4220 and DeltatarO strains – OD600, teichoic acid synthesis inhibitors, primary screen (AID 463173)", "settings": "S. aureus RN4220 wild type/DeltatarO growth, OD600, 18 h, stronger effect = lower value, screened at 18.75 µg/mL (by protocol)", "values": [
      {"molecule": "CCCn1c2ccccc2c2cnn(CC(=O)NCC3CCN(Cc4ccc(C)cc4)CC3)c(=O)c21", "survival": "active: 17%"},
      {"molecule": "COc1ccccc1Nc1nc(NCC2CCCO2)c2ccccc2n1", "note": "(stereo not given)", "survival": "inactive: 103%"},
      {"molecule": "CCOc1ccc(-n2c(SCc3ccccc3)nc3c([nH]c4ccccc43)c2=O)cc1", "survival": "inactive: 71%"},
      {"molecule": "CCC(c1nnnn1CCOC)N1CCN(c2nc3ccccc3s2)CC1", "note": "(stereo not given)", "survival": "inactive: 87%"},
      {"molecule": "CCCCOc1cccc(C(=O)Nc2sc3c(c2C(=O)OCC)CCCC3)c1", "survival": "inactive: 53%"},
      {"molecule": "Cc1ccc2nc3c(cc(C#N)c(=O)n3-c3nnc(SCc4ccc(F)cc4)s3)c(=O)n2c1", "survival": "inactive: 72%"},
      {"molecule": "Cc1cccc2c(=O)cc(CSc3ccccc3NC(=O)C(C)C)[nH]c12", "survival": "inactive: 83%"},
      {"molecule": "COc1cccc(NC(=O)CSc2nc(=O)n(Cc3cccnc3)c3c2CCC3)c1", "survival": "inactive: 91%"},
      {"molecule": "CCOC(=O)CCc1c(C)nc2c(-c3ccccc3)c(C)[nH]n2c1=O", "survival": "inactive: 87%"},
      {"molecule": "CCOc1ccccc1CNC(=O)CSc1n[nH]c(-c2ccccc2)n1", "survival": "inactive: 95%"},
      {"molecule": "O=C(CSc1nnc(-c2ccncc2)n1-c1ccccc1)Nc1ccc(F)cc1", "survival": "inactive: 83%"},
      {"molecule": "Cc1ccccc1OCCCC(=O)NCc1ccco1", "survival": "inactive: 90%"},
      {"molecule": "Cc1cc(=O)n(Cc2cccc(Cl)c2)c2c1c(C)nn2C", "survival": "inactive: 102%"},
      {"molecule": "COc1ccc(OC)c(C2C(C(=O)Nc3ccc(C)cc3C)=C(C)Nc3c(C(=O)Nc4ccc(F)cc4)cnn32)c1", "note": "(stereo not given)", "survival": "inactive: 96%"},
      {"molecule": "CCn1c2c(c(=O)n3ncc(C(=O)N4CCN(c5ccccc5)CC4)c13)CN(Cc1ccc(OC)cc1)CC2", "survival": "inactive: 128%"},
      {"molecule": "Cc1cc(C(F)F)n2ncc(C(=O)O)c2n1", "survival": "inactive: 91%"},
      {"molecule": "Cc1ccc(NC(=O)Nc2nnc(SCC(=O)N3CCCCC3)s2)cc1", "survival": "inactive: 83%"},
      {"molecule": "CC(C)=C(C#N)c1nc2ccccc2s1", "survival": "inactive: 80%"},
      {"molecule": "COc1cccc(N2CC(NC(=O)c3cc4ccccc4o3)CC2=O)c1", "note": "(stereo not given)", "survival": "inactive: 69%"},
      {"molecule": "Fc1ccc(-c2noc3ncnc(NCCc4ccc(Cl)cc4)c23)cc1", "survival": "inactive: 62%"},
      {"molecule": "COc1ccc(Nc2cc(C)c3cc(NC(=O)c4ccccc4Cl)ccc3n2)cc1", "survival": "inactive: 95%"},
      {"molecule": "CC(C)c1ccc2c(c1)NC(c1ccc(F)cc1)=NC(c1cccs1)=N2", "survival": "active: 45%"},
      {"molecule": "Cc1nc2ncnn2c(C)c1CCC(=O)N1CCN(c2ccc(F)cc2)CC1", "survival": "inactive: 89%"},
      {"molecule": "COc1cccc(CNC(=O)N2CCc3c(sc4c3CCCC4)C2c2ccc(F)cc2)c1", "note": "(stereo not given)", "survival": "inactive: 102%"},
      {"molecule": "Cc1cc(C)c(C#N)c(N2CCN(c3cccc(C)c3C)CC2)n1", "survival": "inactive: 106%"},
      {"molecule": "Cc1cccc(C(=O)NCCc2nc3ccccc3n2Cc2ccccc2Cl)c1", "survival": "inactive: 107%"},
      {"molecule": "CCOC(=O)c1ccccc1NC(=O)c1cn(CC(C)C)c(=O)c2cc(OC)c(OC)cc12", "survival": "inactive: 53%"},
      {"molecule": "O=C(CN1CCOCC1)NCC1COc2ccccc2O1", "note": "(stereo not given)", "survival": "inactive: 95%"},
      {"molecule": "COc1ccc(OC)c(-c2noc(CSc3nnc(-c4ccccc4)n3-c3ccccc3)n2)c1", "survival": "inactive: 79%"},
      {"molecule": "Cc1ccc(-n2ncc3c(Nc4ccc(Oc5ccccc5)cc4)ncnc32)c(C)c1", "survival": "inactive: 95%"},
      {"molecule": "COc1ccc(N2CCN(S(=O)(=O)c3ccc(C4CCCCC4)cc3)CC2)cc1", "survival": "inactive: 79%"},
      {"molecule": "Cc1ccc(OCC(=O)Nc2nnc(S(=O)(=O)N3CCc4ccccc43)s2)cc1", "survival": "active: 13%"},
      {"molecule": "COc1ccc(Cl)cc1NC(=O)CSc1nc(=O)n(Cc2ccco2)c2c1CCC2", "survival": "inactive: 94%"},
      {"molecule": "COC(=O)C1=C(CS(=O)(=O)c2ccc(C)cc2C)NC(=O)NC1c1ccc(C)cc1", "note": "(stereo not given)", "survival": "inactive: 77%"},
      {"molecule": "COc1ccc2c(C)c(CCC(=O)NCCc3ccccc3)c(=O)oc2c1", "survival": "inactive: 55%"},
      {"molecule": "Cc1cc(C)c(S(=O)(=O)NCc2ccc3c(c2)CCN3C(=O)c2ccccc2)c(C)c1", "survival": "inactive: 94%"},
      {"molecule": "Cc1ccc(C(=O)CSc2nnc(CSc3nc(C)cc(C)n3)n2C)cc1", "survival": "inactive: 88%"},
      {"molecule": "CCCCN(C)CCNC(=O)c1nn(-c2ccc(OC)c(Cl)c2)c(=O)c2c1c1ccccc1n2C", "survival": "inactive: 99%"},
      {"molecule": "Cc1nn(-c2ccccc2)c2sc(C(=O)Nc3ccc(Cl)cc3Cl)cc12", "survival": "inactive: 71%"},
      {"molecule": "Cc1cccc(N2CCN(C(c3ccccc3F)c3nnnn3C(C)C)CC2)c1C", "note": "(stereo not given)", "survival": "inactive: 92%"},
      {"molecule": "CC(C)Cc1nc2ccc(N)cc2[nH]1", "survival": "inactive: 81%"},
      {"molecule": "COc1ccc(CNC(=O)Cn2c(=O)c3cccn3c3cccnc32)cc1", "survival": "inactive: 102%"},
      {"molecule": "Cc1cccn2c(=O)c(C(=O)N3CCN(c4ccccc4F)CC3)cnc12", "survival": "inactive: 112%"},
      {"molecule": "COc1ccc(C(=O)Nc2nnc(SCc3cc(=O)c4cc(C)ccc4[nH]3)s2)cc1OC", "survival": "inactive: 89%"},
      {"molecule": "CCC(Oc1ccccc1F)C(=O)Nc1cc(-c2ccccc2)no1", "note": "(stereo not given)", "survival": "active: 35%"}
    ]}
  ]
}
